Measured values taken from ChEMBL document CHEMBL4888484, “Replenishing the malaria drug discovery pipeline: Screening and hit evaluation of the MMV Hit Generation Library 1 (HGL1) against asexual blood stage Plasmodium falciparum ,using a nano luciferase reporter read-out” (2022).
About 540 (0.36%) of roughly 150,000 compounds showed an effect of 50% or more. The list shows a part of the results.

Tested on: Plasmodium falciparum
Assay: Primary screen in NF54 nanoGlo assay, in single point, at 2uM, 72h; a lower Z score goes with more inhibition
Type: functional, Erythrocyte
Conditions: timepoint 72 hour

SMILES | % Inhibition [%] | Z score
COCCN(Cc1ccc(C)s1)C[C@H](C)O | -6 | 1.09
O=C1COc2ccccc2N1CCc1nc(C2CC2)n[nH]1 | -8 | 1.28
Cc1cc(C(=O)N2C[C@@H]3[C@H]4CC[C@H](CC4)[C@@H]3C2)c2c(C)noc2n1 | 2 | -0.34
COc1ccccc1CCNC(=O)[C@H]1CCCN(c2ccc(=O)n(C)n2)C1 | -15 | 2.85
COc1ccc(CCc2nnc(NC(=O)C[C@H](C)c3ccccc3)s2)cc1 | -10 | 1.67
CN(Cc1nc2c(F)cccc2[nH]1)C[C@H]1CCS(=O)(=O)C1 | -8 | 0.69
CC(C)c1nn(C)cc1CNCCc1cccc2cccnc12 | -3 | 0.6
CCn1c(CN2CCC(CO)(CCCc3ccccc3)CC2)nc2ccccc21 | -15 | 1.34
CC(=O)Nc1nc(CN2CCc3ccccc3C2)cs1 | -5 | 0.45
Cc1nc2cc(NS(C)(=O)=O)cc(C(=O)N(C)Cc3cccs3)c2n1Cc1ccccc1 | -14 | 1.81
Cc1oc(-c2cccs2)nc1-c1nccn1[C@@H]1COC2(CCCC2)C1 | -5 | 0.55
O=C(Nc1ccn2nccc2c1)c1ccc(Oc2ccccc2)cc1 | -5 | 0.72
Cc1nc(CNC(=O)Nc2ccncc2)cs1 | 4 | -0.7
N#CCCn1ccnc1C(=O)c1cccnc1 | -18 | 1.82
CC(C)(C)NC(=O)CN1C(=O)NC(C)(C)C1=O | -3 | 0.42
CC(C)CC(=O)NC[C@H]1CCC(=O)N(Cc2ccccc2)CC1 | -9 | 1.08
CN(C)S(=O)(=O)c1ccc(N2CCCCC2)c(C(=O)NCCCN2CCCCC2)c1 | -7 | 1.34
COc1cccc(C2=NS(=O)(=O)N(C)C(C(=O)N3CCCCC3)=C2)c1 | -6 | 1.12
Cc1ccc(NC(=O)c2c(C)nc3sc(C(=O)NCc4ccccc4)c(N)c3c2-c2ccccc2Cl)c(C)c1 | 90 | -8.85
CCN1CCN(Cc2cccn2-c2ccc(Cl)cn2)CCC1=O | 1 | -0.13
CCOc1cccc(COC(=O)c2cncc(C)c2)n1 | -14 | 1.44
CC(C)(C)OC(=O)[C@@H]1Cn2c(n[nH]c2=O)CN1 | -8 | 1.52
CC(C)c1cnc(N2CCN(C[C@@H](O)CN(C)C)CC2)nc1 | 8 | -1.67
C[C@]1(c2ccc(S(C)(=O)=O)cc2)NC(=O)N(CC(=O)N2CCN(c3ncccn3)CC2)C1=O | -8 | 1.22
Cc1cc(-c2nc(CC(N)=O)nn2CCO)cc2sc(N)nc12 | -3 | 0.37
O=C(Nc1ccnc(Oc2ccc(F)cc2F)c1)N1CCC[C@H]1CO | 5 | -0.74
Cc1ccc(S(=O)(=O)CCc2cn(C)nn2)cc1 | -6 | 1.08

SMILES | % Inhibition [%] | Z score
C#CCNC(=O)c1ncc(Br)cc1Br | -15 | 1.36
C[C@@H](CNC(=O)c1nc2n(n1)-c1ccccc1S(=O)(=O)N2)c1ccccc1 | 3 | -0.47
O=C(Nc1ccc2c(c1)C(=O)N(C[C@H]1CCCO1)C2=O)C(c1ccccc1)c1ccccc1 | -12 | 1.5
FC(F)[C@H]1CCCN1CC1=CCCOC1 | -6 | 0.74
O=C(CCc1ccsc1)N1CCCCC1 | -10 | 1.8
O=C(Nc1ccc2c(c1)OCCO2)N[C@H]1CCCc2occc21 | -9 | 0.94
CCc1cccc(C)c1NC(=O)C(C)(C)CC | -13 | 2.08
CN(Cc1ccc(-n2cccn2)cc1)C(=O)C[C@@H]1C[C@@H]2C=C[C@H]1C2 | -13 | 1.47
Cc1nc2nc(C3CCCCC3)nn2c(C)c1CC(=O)N1CCCCC1 | -15 | 1.74
CCCN1C(=O)c2c(C(=O)NCCc3cccs3)ncn2C[C@@]1(C)C(=O)NCCC(C)C | -9 | 1.43
Cc1nc(-c2ccc(-c3noc(-c4cncc(Br)c4)n3)cc2)cs1 | -20 | 2.05
C[C@@H](C(=O)N1CCOCC1)N1CCN(Cc2ccc(-c3ccccc3F)s2)CC1 | -6 | 0.71
COCCN(CCOC)c1ccc(-c2nc(-c3ccccc3F)no2)cn1 | -8 | 1.17
O=C(N[C@@H]1CCCc2cccnc21)c1cnn2c1OCCC2 | -6 | 0.96
Cc1cccc(Nc2nc(-c3cnc(N4CCN(C)CC4)nc3C)cc(=O)[nH]2)c1 | 36 | -4.66
C[C@@H](c1ccncn1)N(C)Cc1cc(C2CC2)on1 | -2 | 0.31
O=C(NCc1ccc(C2CC2)cc1)c1cnn2c1CCCC2 | 1 | -0.16
COc1cc(NC(=O)C[C@H]2CCCN(c3cnn(C)c(=O)c3)C2)cc(OC)c1 | -8 | 0.97
O=C(COc1ccc(Cl)cc1Cl)N1CCC[C@H]1c1nc2ccccc2s1 | 11 | -1.39
COc1nc2c(cc1CN1CC[C@@H](CO)[C@@H](O)C1)C(=O)N(C(C)C)C2 | -6 | 1.1
CCn1ncnc1CN(C)Cc1c(C)noc1C | -7 | 1.47
Cc1ccc2c(Nc3cccc(C(C)C)c3)c(C(=O)N3CCCCCC3)cnc2n1 | -6 | 0.95
COC1CCC(N(C)C(=O)[C@@H](C)CC(=O)c2ccccc2F)CC1 (stereo partly drawn) | -11 | 1.61
O=C(NCCOCC1CC1)C(=O)c1ccc(Br)cc1 | 12 | -1.63
Fc1ccc(OCc2nnnn2C2CC2)cc1Cl | 0 | -0.01
Cc1cc(C(=O)N2CCC[C@H]2c2nnc(-c3ccccc3)[nH]2)nn1C | -8 | 1.06
O=C(N1CC(n2cccn2)C1)[C@]1(c2ccccc2)CC12CCCC2 | -2 | 0.34
